# Assay results reported in the supplement of paper PMC12217912.
# The list shows a part of the results. The full chains were built here from the parent and the listed change. Values near 0.05 are background.
# B1: TEV protease; numbered along this chain (parent)
# chain: MGESLFKGPRDYNPISSSICHLTNESDGHTTSLYGIGFGPFIITNKHLFRRNNGTLVVQSLHGVFKVKDTTTLQQHLVDGRDMIIIRMPKDFPPFPQKLKFREPQREERICLVTTNFQTKSMSSMVSDTSCTFPSGDGIFWKHWIQTKDGQCGSPLVSTRDGFIVGIHSASNFTNTNNYFTSVPKNFMELLTNQEAQQWVSGWRLNADSVLWGGHKVFMVKPEEPFQPVKEATQL
# Variants of: B1
# Experiment: raw area under fraction-flipped curve 0-4 h after induction (AUC4h, not background-subtracted), DNA-recorder readout of cleavage of the substrate (dimensionless); higher = more cleavage of the substrate by the protease variant
# Conditions: temperature: 34 °C; time window: 0-4 h after rhamnose induction
# 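Note: Bxb1 expression induced with 0.2% (w/v) L-rhamnose at OD600 near 0.5, cultures sampled hourly, flipped fraction per protease–substrate barcode pair counted by paired-end Illumina sequencing.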
Variant,area with substrate CNLYFQS,area with substrate FNLYFQS,area with substrate LNLYFQS,area with substrate PNLYFQS,area with substrate SNLYFQS,area with substrate TNLYFQS,area with substrate VNLYFQS,area with substrate WNLYFQS,area with substrate YNLYFQS,area with substrate DNLYFQS,area with substrate HNLYFQS,area with substrate INLYFQS,area with substrate KNLYFQS,area with substrate MNLYFQS,area with substrate QNLYFQS,area with substrate GNLYFQS,area with substrate NNLYFQS,area with substrate RNLYFQS
MGESLFKGPRDYNPISSSICHLTNESDGHTTSLYGIGFGPFIITNKHLFRRNNGTLVVQSLHGVFKVKDTTTLQQHLVDGRDMIIIRMPKDFPPFPQKLKFREPQREERICLVTTNFQTKSMSSMVSDTSCTFPSGDGIFWKHWIQTKDGQCGSPLVSTRDGFIVGIHSASNFTNTNNYFTSVPKNFMELLANQEAQQWVSGWRLNADSVLWGGHKVFMVKPEEPFQPVKEATQL [T192A],0.0832,0.0691,0.0551,0.062,0.0603,0.0801,0.0787,0.0641,0.0559,–,–,–,–,–,–,–,–,–
MGESLFKGPRDYNPISSSICHLTNESDGHTTSLYGIGFGPFIITNKHLFRRNNGTLVVQSLHGVFKVKDTTTLQQHLVDGRDMIIIRMPKDFPPFPQKLKFREPQREERICLVTTNFQTKSMSSMVSDTSCTFPSGDGIFWKHWIQTKDGQCGSPLVSTRDGFIVGIHSASNFTNTNNYFTSVPKNFMELLTNLEAQQWVSGWRLNADSVLWGGHKVFMVKPEEPFQPVKEATQL [Q194L],0.0741,0.0718,–,0.0562,–,0.0651,–,0.0558,–,0.0729,0.0671,0.0752,0.0725,0.0673,0.0565,–,–,–
MGESLFKGPRDYNPISSSICHLTNESDGHTTSLYGIGFGPFIITNKHLFRRNNGTLVVQSLHGVFKVKDTTTLQQHLVDGRDMIIIRMPKDFPPFPQKLKFREPQREERICLVTTNFQTKSMSSMVSDTSCTFPSGDGIFWKHWIQTKDGQCGSPLVSTRDGFIVGIHSASNFTNTNNYFTSVPKNFMELLTNTEAQQWVSGWRLNADSVLWGGHKVFMVKPEEPFQPVKEATQL [Q194T],0.0599,0.0886,0.0731,0.0596,–,0.0534,0.0753,0.0507,0.0657,0.116,0.0782,–,0.12,–,0.0749,0.0602,0.075,–
MGESLFKGPRDYNPISSSICHLTNESDGHTTSLYGIGFGPFIITNKHLFRRNNGTLVVQSLHGVFKVKDTTTLQQHLVDGRDMIIIRMPKDFPPFPQKLKFREPQREERICLVTTNFQTKSMSSMVSDTSCTFPSGDGIFWKHWIQTKDGQCGSPLVSTRDGFIVGIHSASNFTNTNNYFTSVPKNFMELLTNQEKQQWVSGWRLNADSVLWGGHKVFMVKPEEPFQPVKEATQL [A196K],0.0682,0.0658,0.0646,0.0687,0.0657,0.0626,0.0473,0.061,0.0548,0.0803,0.0682,0.0625,0.0908,0.0827,–,0.0729,0.0788,0.0585
MGESLFKGPRDYNPISSSICHLTNESDGHTTSLYGIGFGPFIITNKHLFRRNNGTLVVQSLHGVFKVKDTTTLQQHLVDGRDMIIIRMPKDFPPFPQKLKFREPQREERICLVTTNFQTKSMSSMVSDTSCTFPSGDGIFWKHWIQTKDGQCGSPLVSTRDGFIVGIHSASNFTNTNNYFTSVPKNFMELLTNQEEQQWVSGWRLNADSVLWGGHKVFMVKPEEPFQPVKEATQL [A196E],0.0661,0.069,0.0283,0.0682,0.0718,0.0646,0.0795,0.0572,0.0589,0.0864,0.0542,0.0876,0.0773,–,0.072,0.0834,0.0865,0.0568
MGESLFKGPRDYNPISSSICHLTNESDGHTTSLYGIGFGPFIITNKHLFRRNNGTLVVQSLHGVFKVKDTTTLQQHLVDGRDMIIIRMPKDFPPFPQKLKFREPQREERICLVTTNFQTKSMSSMVSDTSCTFPSGDGIFWKHWIQTKDGQCGSPLVSTRDGFIVGIHSASNFTNTNNYFTSVPKNFMELLTNQEAQQLVSGWRLNADSVLWGGHKVFMVKPEEPFQPVKEATQL [W199L],0.0484,–,0.0689,0.0608,0.0732,0.0517,–,–,–,0.0658,0.0543,–,–,–,–,–,–,–
MGESLFKGPRDYNPISSSICHLTNESDGHTTSLYGIGFGPFIITNKHLFRRNNGTLVVQSLHGVFKVKDTTTLQQHLVDGRDMIIIRMPKDFPPFPQKLKFREPQREERICLVTTNFQTKSMSSMVSDTSCTFPSGDGIFWKHWIQTKDGQCGSPLVSTRDGFIVGIHSASNFTNTNNYFTSVPKNFMELLTNQEAQQRVSGWRLNADSVLWGGHKVFMVKPEEPFQPVKEATQL [W199R],0.0555,–,0.0616,0.0672,0.0536,0.0568,0.0469,0.0649,0.0579,0.057,0.0466,0.0655,–,0.0574,–,0.0686,–,–
MGESLFKGPRDYNPISSSICHLTNESDGHTTSLYGIGFGPFIITNKHLFRRNNGTLVVQSLHGVFKVKDTTTLQQHLVDGRDMIIIRMPKDFPPFPQKLKFREPQREERICLVTTNFQTKSMSSMVSDTSCTFPSGDGIFWKHWIQTKDGQCGSPLVSTRDGFIVGIHSASNFTNTNNYFTSVPKNFMELLTNQEAQQCVSGWRLNADSVLWGGHKVFMVKPEEPFQPVKEATQL [W199C],0.0649,–,0.0596,0.0684,0.0704,0.0422,0.064,0.0561,–,0.0681,0.054,0.0587,–,–,–,–,–,0.0616
MGESLFKGPRDYNPISSSICHLTNESDGHTTSLYGIGFGPFIITNKHLFRRNNGTLVVQSLHGVFKVKDTTTLQQHLVDGRDMIIIRMPKDFPPFPQKLKFREPQREERICLVTTNFQTKSMSSMVSDTSCTFPSGDGIFWKHWIQTKDGQCGSPLVSTRDGFIVGIHSASNFTNTNNYFTSVPKNFMELLTNQEAQEWVSGWRLNADSVLWGGHKVFMVKPEEPFQPVKEATQL [Q198E],0.0648,–,–,0.0726,0.0699,0.0645,0.0592,0.0495,0.0506,0.0647,0.0929,0.0631,0.0932,0.0691,0.0644,0.085,0.0741,–
